In the supplement of paper PMC11417369:
The other results are listed elsewhere or left out.

system: PfSIP2 AP2 domain 1 (GST-tagged); assay: gcPBM binding intensity (ln(normalized median fluorescence intensity)); higher = stronger DNA binding
Outline: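 DNA-binding domains from P. falciparum, fused to GST and produced in E. coli, were put on an Agilent 4 × 180k double-stranded probe array for 1 h in 1× PBS holding 1% milk, 0.2 mg/ml BSA, 0.5% salmon testes DNA and 0.03% Triton X-100. Probes were primer-extended, 36 bp long and drawn from intergenic genomic regions, with negative controls included. After Alexa488 anti-GST antibody detection and a 488 nm scan, binding intensity was set as the highest Masliner-normalised natural-log median intensity across replicate spots of either probe orientation.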

| Sequence | gcPBM binding intensity (ln) |
| --- | --- |
| ATAATAACTGATAAATGTACATATAAATTTTATGAT [XGTACX_site195] | 7.06 |
| ATAATTTAAAAACATTGTACATTAATATATATGTAT [XGTACX_site8970] | 7 |
| AGGATATGCGGACACACACACATATATATATATATA [CACACA_site5247] | 9.5 |
| TTTATATTTCTTCATCGTACACATAAAAAAAAAAAA [XGTACX_site3244] | 7.31 |
| ATACTCACGAAACACACACACAATATATATATATAT [CACACA_site4136] | 9.24 |
| TTTTATATTTTAAGAGTGCATTTTATATCTTTTTCT | 8.74 |
| GAAAATATTAAATGAAGTACAATATTTATGTTACTT [XGTACX_site8737] | 6.71 |
| TGAAAGAATGTTAATAGTACACACAATTATTATATA [XGTACX_site7936] | 6.93 |
| TAAGAACTATTCAGTAGTACCTATATGGATTACTAA [XGTACX_site4278] | 6.57 |
| ATTGATATTGTATAATGTACAGGAAAAAAAAAAAAA [XGTACX_site526] | 6.91 |
| TTCTTTATTTTTTCTACACACATTATGTATTCAAAG [CACACA_site3527] | 7.69 |
| TGAAAGAACCTGATTACACACATAAGTTATAAATAT [CACACA_site6165] | 6.82 |
| AATCTCAGAATATACTGTACTTTAAGAAAAAAAAAA [XGTACX_site110] | 7.09 |
| AATATATATTTGTGTACACATTATATATATATATAT [CACACA_site6103] | 9.38 |
| AAAATTTAAATAGGAAGTACGTTCACTAAGAAAATA [XGTACX_site6546] | 7.05 |
| AAATAAAGATATATATATATATATATATATAATTTT [CACACA_negctrl_site30] | 7.7 |
| AAAATGTGCATATTTGCACACTTCAATATATATATA [CACACA_site1791] | 9.19 |
| CATAAATCAGCCATAACACACATACCTATATACATA [CACACA_site6324] | 7.01 |
| AAATATTTTGCATACACATGCAAATATTTTTTACAT [TGCATGCA_site554] | 6.87 |
| AATATAAAAAGGCACACACACAAAAAAAAAAAAAAA [CACACA_site896] | 7.13 |

| Sequence | gcPBM binding intensity (ln) |
| --- | --- |
| ATTTCTAAATGTTGGTGTACGTTTTTTTATAACCTT [XGTACX_site1752] | 6.88 |
| AATAAATGGAATGTCACACATATATATATATATATA [CACACA_site4869] | 9.35 |
| ATTATTTAAAAAAAATGTACATAATAAATATGAACG [XGTACX_site4010] | 6.9 |
| AGTGTATGTATATAAACACACATACATATTTATAAC [CACACA_site6777] | 6.93 |
| AAAAAAAAGAAAGAAAGTACAAATTATAAAATGAAC [XGTACX_site860] | 6.75 |
| TAAATTAAAAAACACACACACAAAAAAAAAAAAAAA [CACACA_site2263] | 6.85 |
| TTGATATTATTGTATAAACATAATAGAGATAAAGAG [TGCATGCA_negctrl_site455] | 7.62 |
| CAGGTGCACTATATTACACACGCTTCTTTTTTTTTA [CACACA_site2069] | 12.4 |
| TACAAAAAAATAAATAATAAAAAAAAATATATATAA [XGTACX_negctrl_site344] | 6.79 |
| TGAAGGATATATTCCGTGCACATATAAATATATACA | 9.71 |
| AACATGTTAACTAAATGTACACACCTATGTTGATGT [XGTACX_site3777] | 6.98 |
| GGAAAACACAAAAACTGTACATTTATTCAACATATA [XGTACX_site5831] | 6.95 |
| TATATACATATATACACACACATATATATATATATA [CACACA_site2805] | 9.43 |
| ATAGGTAAAAAGTATACACACGTTGACACATTCTTT [CACACA_site4794] | 6.98 |
| AAATAATACAAGGGCTGTACATAAAAAGGAGTATAT [XGTACX_site839] | 7.42 |
| ATTTTAAAAAGGATAGTGCAAATGTTAAAATAGGAC | 8.74 |
| ATTTATTTTCTGTGTACACATATGTTGGGTATTTTA [CACACA_site5902] | 7.53 |
| AGAAAAAAAAAAAGTACACACATATAACATATAGAT [CACACA_site7410] | 6.9 |
| GTATATATCCCAAAATGTACATAATTTATTATTTAT [XGTACX_site2842] | 7.17 |
| CAAAAGGATGTGGGATGTACATATGAAAAAAAAAAA [XGTACX_site8059] | 7.02 |

| Sequence | gcPBM binding intensity (ln) |
| --- | --- |
| TTTTATTTATAATACTCACACATTTATATTACATAT [CACACA_site6000] | 6.9 |
| GGTCTTTTTTTCAAAAGTACATAAATAAAAAAGGTT [XGTACX_site2894] | 7.51 |
| TTGTATGTAAAAAAGTGTACATGAGTGATTATATAA [XGTACX_site8166] | 7.16 |
| TAAATTTAAAAATCTGCACACATTTAAAAAAAAAAA [CACACA_site2515] | 7.14 |
| ATTACTAAAAAATATAAACACACATATATTTTACAT [CACACA_site8633] | 6.94 |
| GAAAATTTAAAAAGAGTGCATTATATGTTTGAATAT [GTGCAC_site9564] | 9.18 |
| CTTTTTTTCTTTCCAAGTACTAAATTCATACAAATT [XGTACX_site2605] | 7.05 |
| AATAAAATAATAAAAGCACACAAGAATACACCCAAA [CACACA_site7919] | 7.03 |
| TTTAACGAATAAAAATGTACAAATTTATACATTTAT [XGTACX_site2805] | 6.79 |
| TATAAACCTTTTTGCACGCACACAAAAAAAAAATAA [CACACA_site168] | 7.85 |
| AAACATATATACATATGTACATATATACATATATGT [XGTACX_site5779] | 7.12 |
| TTCGGAAAAATTAAAGCACACAAAAAAAAATAAAAA [CACACA_site8296] | 7.17 |
| GATTAACAACATATTAGTACATATATTATATATATA [XGTACX_site7646] | 8.17 |
| GACTATAATGTTTTGGTGCGTCATGTTATGGTCATC | 8.51 |
| CATATTTTATTATATACATGCAATTTTAATATATAT [TGCATGCA_site544] | 7.01 |
| CACCCCCACAGACACACACACACACCGATATATATA [CACACA_site8010] | 7.89 |
| TATAATTTAACGACATGTACATATAAAAAAATATTT [XGTACX_site2395] | 7.2 |
| ATACACATTCTTCCGACATAATAAGAAAAAGAAAAA [CACACA_negctrl_site9] | 7.17 |
